From the RNAGym collection of RNA variant scans (doi:10.1101/gad.245936.114)
Variants at the background level are over-represented here.

B1: tRNA (parent)
chain: CUCUCGGUAGCCAAGUUGGUUUAAGGCGCAAGACUUUAAUUUAUCACUACGAAAUCUUGAGAUCGGGCGUUCGACUCGCCCCCGGGAGAUUUUUUCCUCGAGCAA

Variants of: B1
Assay: nonsense suppression (GFP-seq) (ratio to wild type); higher = more function; SUP4oc tRNA, yeast GFP reporter sort-seq
Summary of the method: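 Each variant's nonsense suppression (GFPSEQ) is a cell-share-weighted bin median GFP/RFP relative to the unmutated parent tRNA. Yeast with genome-integrated tRNA variants from a ~3% random-mutation library, a galactose-driven GFP ochre reporter and RFP were grown in raffinose/galactose medium with 80 mg/L adenine, then sorted into GFP/RFP bins for Illumina sequencing. Variants needed ≥100 reads and ≥30 cells.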

Nonsense suppression, 0.0902:
C27A U55C

Nonsense suppression, ≤ 0.026:
G26U A31G A54U U57C G73C
C27U A74C A87C
C27G G65U C79G
C27G G67U U71A
G25U U76G
C27A C56G U57G U63A
C27A G28C
G26U A33C C34A G59C
G26A G67C A74G
G25U U57C
G25U U57A
G25U U57G
G25U U55A
G25C U63C C68U C80U C82G A89G
C27A A33U G69U
C27A A31U G59C G66C
C27G C79A
G26A A31G G61C G66A
G25C U58A G59A A62C
G26A C34G G85A
G26U U57A
G25C C34G U57G C83G
G25U A33G U71G
G25C C68A U70A
C27U A87C
G26A G32U G66C
G25C A87G
G25U U35C G59U G88A
C27U A60U G67U
C27U G66C A87C
G26A A62U
C27A G84A G86C
G26U U58A G84C
G26U G61A
G25U C72U
C27G G66U
G26U U35C G59U
C27A C34G
C27A C34A
C27A C34U
C27U G66C G67C G73A A87C
C27A U76C
G26U U63C C81U G85A
C27U C29G G69A G88U
G26C A62C
G26U G59U
G26U G59A
G25U G69U
G25U G69C
G26U A62G
C27A A30U C83G
C27G C77A G88U
G26C C83G G86A A87G
C27U C29U A62C
G26A A54C A62U U63A G65C C79A C81G
G26A U63C U70G A89U
C27G C56G G67U
C27G G61C G85C
C27U A31C C72U C79G
G25C C27G U70C
C27G U71A C79G
G25C G67A G69A
G26C G84C A89G
C27G G78C
C27U G88C
C27G G65A
C27G C82U
C27G C82G
C27G G69U U70A G84U
C27G U57C
C27G U57G
G26C G61A
G26A G61A
G25U G66C
G25U G66A
G26U U63A C83A
C27G A31C
C27A U55A C77G G78C A87C G88C
G26C C34U G61A C82A G85C G86A
G26U A30C C56A C77G
C27A G32A U35G G73C C80U
G26C C64A
C27A A89C
G25U U63A G86A
C27A U55A G85A
G26U G69A
G26U A60C U70G C72A G84C A89U
C27U G61A G69U
C27A G61C
C27G U57G G73C A74C G88U
G26C C27U G65A
G26C C27A G59C U70G C75A
G25U G88U
G26A G32A U63A G85U G88A
G26U C56U
C27U G28U A54C U71C G88C
G26C C27U A30U C34U C72G G88C
G25U C29G
C27U C56A G86C
C27A C56G
G26C C34U U58A A62G
G26U U57G U58C
G26C A60U C64G
G26U G88C
C27U C81G
G26C A30U G85A
C27A G65A
G26A A87G
C27A U55A
C27A U57A C77G
C27A G32C A74G
G25C U71C C72U G73U
C27G A33G G61A
C27U C72A
C27G C34G
G26A A31G G59U
G26C A33G C77G G86U
G26A C77G
C27G A87C
G26U C29G
C27G C29A U57A
G26U A31C G84A
G26A G61U G65C G67C
C27G U71G
G26C C75G U76A
C27U C29G U55C G69A
C27G G65A C79A
C27A C29G G65A
C27G C77G
G26U C29A A54U C79G
G26U C29A A54U C79U
G25C G65A C80G
C27G A33U C34G C83G G85A
G25U G61A G66C
C27G U58A U63A
C27G G86A
G25C U57C
G26A C27U A31G G65C G66C G73A G78C A87C
G26C C34A C83U A89C
G25C U57C U70G
G25U C75U
C27U C29U A89C
C27G C83G
G26C A31U G88U
C27A G66C
G25C U55A G66A
C27G C56A C77G
C27G U55A G61C
C27A C72U
G25U U58G A74C
C27G A60C C68A
G25C U55C A60U
G26C G86U
C27A G78A
C27A C56G A62C U63A
G25C G86A G88A
G26A C29G A30G A33G
G26C A33G U76G
G25U C82G G88U
G26C U57G A60G G69A
G25C G61A
G25C G61C
G26C A31C C68U
C27U G86C
G25U A30U

Nonsense suppression, 0.0314:
C27U A54C
